# Test results as given in paper PMC4336329 (PLoS ONE, 2015).
# In all, about 310,000 compounds went through this assay and about 2,200 (0.71%) showed an effect of 50% or more. The effect is printed as a negative number. Some of the results follow.
# Target: human ether-à-go-go-related gene (hERG) potassium channel (human, UniProt Q12809)
# Test: primary screen, population patch clamp on CHO cells stably expressing hERG
# Sequence of human ether-à-go-go-related gene (hERG) potassium channel (Q12809 whole entry, looked up): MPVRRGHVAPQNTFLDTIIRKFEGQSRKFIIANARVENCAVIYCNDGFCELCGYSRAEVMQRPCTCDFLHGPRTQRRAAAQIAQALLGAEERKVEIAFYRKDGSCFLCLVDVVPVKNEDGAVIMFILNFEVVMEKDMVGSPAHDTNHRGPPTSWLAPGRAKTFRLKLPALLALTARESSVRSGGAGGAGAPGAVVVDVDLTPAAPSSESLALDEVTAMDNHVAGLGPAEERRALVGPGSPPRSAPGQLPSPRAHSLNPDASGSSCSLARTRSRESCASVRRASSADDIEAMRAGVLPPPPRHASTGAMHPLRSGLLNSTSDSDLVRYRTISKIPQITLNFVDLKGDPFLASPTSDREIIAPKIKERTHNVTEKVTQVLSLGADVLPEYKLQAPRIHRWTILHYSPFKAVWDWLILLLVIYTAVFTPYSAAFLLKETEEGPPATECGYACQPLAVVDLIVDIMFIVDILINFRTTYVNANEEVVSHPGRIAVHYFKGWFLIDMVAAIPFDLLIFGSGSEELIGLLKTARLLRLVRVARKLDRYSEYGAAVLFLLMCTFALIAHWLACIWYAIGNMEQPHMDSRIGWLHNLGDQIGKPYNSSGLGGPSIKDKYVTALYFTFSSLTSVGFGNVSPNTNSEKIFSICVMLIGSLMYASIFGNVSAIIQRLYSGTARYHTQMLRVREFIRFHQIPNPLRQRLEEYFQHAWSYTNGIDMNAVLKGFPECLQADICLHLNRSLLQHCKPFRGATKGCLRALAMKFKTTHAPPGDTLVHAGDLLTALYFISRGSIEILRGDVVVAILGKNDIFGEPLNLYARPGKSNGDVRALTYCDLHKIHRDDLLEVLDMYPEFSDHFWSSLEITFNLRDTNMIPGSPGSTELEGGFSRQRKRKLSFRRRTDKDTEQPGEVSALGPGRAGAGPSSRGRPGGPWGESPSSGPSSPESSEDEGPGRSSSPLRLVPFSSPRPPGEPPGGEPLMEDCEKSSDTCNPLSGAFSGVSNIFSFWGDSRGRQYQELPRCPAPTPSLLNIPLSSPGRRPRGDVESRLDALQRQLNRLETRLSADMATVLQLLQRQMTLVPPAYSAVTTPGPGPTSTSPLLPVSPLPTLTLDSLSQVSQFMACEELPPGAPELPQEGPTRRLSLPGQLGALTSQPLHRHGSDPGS
row,SMILES,"hERG current change (%, negative = inhibition) at 1uM [%]"
1,NC12NC(=O)C3(O)C4C5CC(C6C5C3C61)C42 (centres unmarked),8.74
2,CC(c1ccccc1)N1CC(C(=O)N2CCN(c3ccc(F)cc3)CC2)CC1=O (centres unmarked),-20
3,Cc1ccc(S(=O)(=O)n2nc(C)cc2C)cc1,7.26
4,COc1cc(C)ccc1OCc1cc(C(=O)NCc2ccncc2)no1,12.2
5,COc1ccc2cc(Br)ccc2c1CC(=O)NCC1CCCO1 (centres unmarked),15.4
6,COc1ccccc1N1CCN(Cc2ccco2)CC1.O=C(O)C(=O)O,1.33
7,Cc1ccc(S(=O)(=O)N/N=C/c2ccc(OCC(=O)Nc3ccccc3Cl)cc2)cc1,3.12
8,COc1ccc(N2C(=O)/C(=C/c3ccc(OC)c(OC)c3)C(=O)NC2=S)cc1,14.9
9,Cc1ccc2[nH]c3c(c2c1)CN(C(=O)CN1CCN(c2ccccn2)CC1)CC3,-3.52
10,COc1ccc(C(=O)N2CCCCC2)cc1S(=O)(=O)Nc1cccc(C(=O)O)c1,10.7
11,Cc1ccc(SCC(=O)Nc2ccc(N3CCN(c4ccccc4)CC3)c(F)c2)cc1,8.76
12,CCc1ccc(C(=O)c2cnc3ccc(OC)cc3c2N2CCN(CC)CC2)cc1,-46.6
13,Cc1cccc(C(=O)N2CCc3ccccc3C2)c1[N+](=O)[O-],12.4
14,CCCCn1c2c(c(=N)c3c1CCC3)CCC2.I,5.32
15,COc1cc(/C=C/C(=O)OCC(=O)N(C)Cc2ccccc2)ccc1O,22.9
16,COc1ccc(-c2nc(CS(=O)(=O)CC(=O)NCCc3ccc(C)cc3)c(C)o2)cc1,9.96
17,Cc1sc2ncnc(Nc3ccccc3)c2c1C,6.07
18,COc1ccc(OCc2nnc(SCC(=O)Nc3cccc(Cl)c3)o2)cc1,11.5
19,CC(Oc1cccc([N+](=O)[O-])c1)C(=O)NCCC1=CCCCC1 (centres unmarked),-2.17
20,Cc1nc2c(C(=O)NCCC3=CCCCC3)c[nH]n2c(=O)c1Cl,12.2
21,Cc1cc(C(=O)CSc2nnnn2-c2ccc(O)cc2)c(C)n1Cc1ccc2c(c1)OCO2,1.52
22,S=C(Nc1cccnc1)N1CCN(c2ccccc2Cl)CC1,14.9

row,SMILES,"hERG current change (%, negative = inhibition) at 1uM [%]"
1,O=C(c1ccc(F)cc1)N1CCC(C(=O)N2CCN(Cc3ccc4c(c3)OCO4)CC2)CC1,4.61
2,Cc1ccc(NC(=O)COC(=O)/C=C/c2cccc(Cl)c2)cc1S(=O)(=O)N1CCOCC1,2.59
3,CSc1nnc(CNC(=O)c2ccccc2)n1-c1cccc(C)c1,8.93
4,CCOC(=O)N1CCN(c2nnc(-c3ccc(C)cc3)c3ccccc23)CC1,2.25
5,Cc1ccc(-c2nnc(SCC(=O)NC3CCS(=O)(=O)C3)nc2-c2ccc(C)cc2)cc1 (centres unmarked),8.3
6,Cn1c(=O)c2c(nc(NCc3ccc4c(c3)OCO4)n2Cc2ccccc2F)n(C)c1=O,2.18
7,CC1CC(=O)NN=C1c1ccc(N)c([N+](=O)[O-])c1 (centres unmarked),10.4
8,Cc1ccc2cc(C=C(C#N)C#N)c(Cl)nc2c1,5.12
9,O=C(CCn1cnc2ccccc2c1=O)Nc1nc(-c2ccc(Br)cc2)cs1,7.93
10,O=C(COc1ncnc2c(Cl)cc(Cl)cc12)NCCC1=CCCCC1,10.1
11,NC(=O)C[n+]1cccc2ccccc21.[I-],2.63
12,CCc1ccc(OC(C)C(=O)Nc2ccccc2C(=O)N2CCOCC2)cc1 (centres unmarked),8.83
13,O=C(Nc1cccnc1N1CCOCC1)c1cc2ccccc2oc1=O,7.52
14,CCOC(=O)C1CCN(S(=O)(=O)c2c(C)[nH]c(C)c2C(=O)N2CCCCC2)CC1,17.9
15,Cc1c(OC(C)C(=O)N[C@@H](Cc2ccccc2)C(=O)O)ccc2c3c(c(=O)oc12)CCCC3 (some centres unmarked),13
16,Cc1ccc(C2=C/C(=C\c3cccnc3)C(=O)O2)cc1,8.6
17,CC(C(=O)Nc1nc(-c2ccc(F)cc2)cs1)N1C(=O)C2CC=CCC2C1=O (centres unmarked),6.7
18,Cc1sc2ncnc(N3CCC(C(=O)Nc4nc(-c5cccs5)cs4)CC3)c2c1C,8.17
19,O=C(c1ccccc1Cl)N1CCN(S(=O)(=O)c2cccs2)CC1,-3.7
20,O=C(NN=C1CCCC1)c1n[nH]c2c1CCC2,11.8
21,Cc1nc([N+](=O)[O-])cn1CC(=O)Nc1ccc2c(c1)OCO2,9.75
22,CCNC(=S)Nc1cccc(S(=O)(=O)Nc2ccccc2OC)c1,10.9
